# Source: PubChem BioAssay AID1508623 (National Center for Advancing Translational Sciences (NCATS), 2021)
# The whole screen tested about 48,000 compounds, of which about 450 (0.94%) were called active. Not shown: some 19% with an inconclusive outcome. Calls come from the whole dose curve; as a rule, active = well fitted inhibition curve with a large enough effect; inconclusive = small, poorly fitted or top-dose-only effect; inactive = no such curve, though single readings can be large or run the other way. Some of the results follow.
# Assay: Primary qHTS for Identification of Small Molecule Inhibitors of Huntingtin Promoter Activity; note: nearly all actives have a fitted effect of over 50% in size
# Conditions: HEK293 HTT promoter firefly luciferase reporter (activity 0% = vehicle and -100% = no light), 24 h; series mostly up to 57.5 µM; activity change, negative = inhibition: at the top concentration
# Outline: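 Firefly luciferase signal from promoter-reporter HEK293 cells was scaled between vehicle (0%) and zero RLU (-100%). Compounds were tested at final concentrations of up to 57.5 uM over 24 h at 37 degrees C. PTC124 at 50 uM final served as control inhibitor.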
# Potency is the fitted concentration of half-maximal effect.
Structure (SMILES),"activity change, negative = inhibition",Potency
COc1ccc(CNC(=O)CSc2ncc3c(n2)-c2ccc(Cl)cc2N(Cc2ccccc2)S3(=O)=O)cc1,inactive: -10.9%,–
COc1ccc(C(=O)NCc2ccc3c(c2)CCN3C(C)=O)c(OC)c1,inactive: -23%,–
Cc1ccccc1NC(=O)C1CCN(S(=O)(=O)c2c(C)noc2/C=C/c2ccco2)CC1,inactive: -19.6%,–
CCC(=O)N1CCc2cc(CNC(=O)c3cccc(N(C)C)c3)ccc21,inactive: -13.9%,–
CCc1ccccc1N1C(=O)CN(S(=O)(=O)CC)CC1(C)C(=O)NC1CCCCC1 (stereo not drawn),inactive: -13.5%,–
NC(=O)c1c(OCc2c(F)cc(Br)cc2F)nsc1NC(=O)NCCCCN1CCCC1,inactive: -19.9%,–
CCC(=O)OC1=C(C(C)=O)N(Cc2ccccc2)S(=O)(=O)c2ccccc21,inactive: -4.05%,–
Cc1ccc(Cn2c(SCc3ccc(C(=O)N4CCCCC4)cc3)nc3ccncc32)cc1,–,active: 12.6 µM
CCc1ccccc1NC(=O)Cn1nc(CC)n2c(cc3sccc32)c1=O,inactive: -0.775%,–
NC(=O)c1ccc([N+](=O)[O-])cc1Cl,inactive: -0.163%,–
COc1ccc(-c2cc(C(=O)N3CCCCC3C)no2)cc1OC (stereo not drawn),inactive: 36.5%,–
O=C(COc1ccccc1)Nc1nnc(S(=O)(=O)Nc2ccccc2)s1,inactive: 2.11%,–
Cc1ccc(Cl)cc1N1CCN(S(=O)(=O)c2cn(C)c(C)n2)CC1,inactive: -11.4%,–
CC1CCCCN1CCCNC(=O)CN1C(=O)c2cccnc2Oc2ccc(Cl)cc21 (stereo not drawn),inactive: -0.215%,–
CCOc1ccccc1C1C(C(=O)Nc2ccccc2)=C(C)Nc2nc(SCC(=O)c3ccc(C)cc3)nn21 (stereo not drawn),inactive: -5.74%,–
CN(C(=O)CSc1nc(-c2ccccc2)no1)c1ccc(F)cc1,inactive: 12.7%,–
O=C1OCCN1/N=C/c1ccc([N+](=O)[O-])o1,inactive: 0.777%,–
O=C(c1ccc(Cl)cc1)N1CCN(CCc2ccncc2)CC1,inactive: 1.52%,–
Cc1ccc(-c2nnc(Nc3cccc(Cl)c3)c3ccccc23)cc1S(=O)(=O)N1CCN(C)CC1,inactive: 0.0045%,–
CCOc1ccc(Nc2cc(C(=O)NCc3ccccc3Cl)c3ccccc3n2)cc1,inactive: 4.12%,–
Cc1cccc(NC(=O)Cn2c(=O)n(CCCCCC(=O)NCc3ccccc3)c(=O)c3sccc32)c1,inactive: -30.3%,–
CCOC(=O)N1CCN(C(=O)c2ccc3c(c2)N(Cc2ccccc2F)C(=O)c2ccccc2S3(=O)=O)CC1,inactive: -18.4%,–
CCc1ccc(NC(=O)CSc2nc3c(c(=O)[nH]2)CN(Cc2ccc4c(c2)OCO4)CC3)cc1,inactive: -30.7%,–
O=C(COc1ccccc1)NCC(c1ccc(Cl)cc1)N1CCCCC1 (stereo not drawn),inactive: -24.5%,–

Structure (SMILES),"activity change, negative = inhibition",Potency
O=C(CCCc1ccccc1)NC1CC(=O)N(c2cccc(F)c2)C1 (stereo not drawn),inactive: -6.59%,–
O=C(Nc1ccc(Br)c(Cl)c1)c1ccc(C(=O)Nc2ccc(Br)c(Cl)c2)cc1,inactive: -9.78%,–
COC(=O)C1=C(C)N(C(C)C)C(=O)C1(NC(=O)c1ccccc1OC)C(F)(F)F (stereo not drawn),inactive: -11.2% [at 11.5 µM],–
CCCCCn1c(CCCNC(=O)c2ccc(Cl)cc2)nc2ccccc21,inactive: -24.2%,–
COc1ccc(CNC(=O)CCc2nnc3n(C)c(=O)c4sccc4n23)cc1,inactive: -4.18%,–
COc1ccc(-c2nc(C(=O)Nc3cccc(C(C)=O)c3)nn2-c2ccccc2Cl)cc1,inactive: -4.86%,–
CCOc1cc(-c2nc(-c3ccc(-c4ccccc4)nc3OCC)no2)cc(OCC)c1OCC,inactive: 6.5%,–
O=C(NCc1ccccc1Cl)c1ccccc1NC(=O)c1nsc2ccccc12,inactive: 79.1%,–
COc1cc(OC)c(NC(=O)c2cnn(-c3ccccc3)c2-n2cccc2)cc1Cl,inactive: -11.2%,–
COCCCNC(=O)c1cc2c(-c3cccc(OC)c3)nn(C)c2s1,inactive: -12.2%,–
CCC(=O)N1CCc2cc(Br)cc(S(=O)(=O)Nc3ccccc3C(=O)OC)c21,inactive: -8.91%,–
CCOC(=O)[C@H](CCc1ccccc1)N[C@H]1CS[C@H](c2cccs2)CN(CC(=O)O)C1=O,inactive,–
CCc1ccc(NC(=O)c2cc(S(=O)(=O)N3CCCC(C)C3)cn2C)cc1 (stereo not drawn),inactive: -26.9%,–
COc1cc(CN(C(=O)COc2ccc(F)cc2)c2ccccn2)cc(OC)c1OC,inactive: -12.4%,–
CCOc1ccc(OCC(=O)Nc2ccc(S(=O)(=O)Nc3cc(C)on3)cc2)cc1,inactive: -0.802%,–
COc1cc(NC(=O)CCN2CCN(CCO)CC2)cc(OC)c1,inactive: -11.1%,–
CCc1nn(CC(=O)NCCc2ccc(SC)cc2)c(=O)c2cc3sccc3n12,inactive: -11.7%,–
CCCc1cc(=O)n2[nH]c(NCc3c(F)cccc3Cl)nc2n1,inactive: -18.9%,–
CCOC(=O)COc1ccc(-c2nnn(CC(=O)Nc3ccccc3)n2)cc1,inactive: 8.13%,–
Cc1sc2c(c1C)c(=O)n(CCc1ccccc1)c(=O)n2Cc1ccc(C(C)(C)C)cc1,inactive: -4.35%,–
CCn1c(CNC(=O)c2ccc(OC)cc2)nnc1SCC(=O)Nc1cc(C)ccc1C,inactive: -16.4%,–
Cn1c(/C(C#N)=C/c2ccccc2Br)nc2ccccc21,inactive: 36.4%,–
CCc1cccc(NS(=O)(=O)c2ccc3c(c2)CC(C)N3C(=O)C2CC2)c1 (stereo not drawn),–,active: 14.1 µM
COc1ccccc1C(=O)NCc1nc2cccnc2n1Cc1ccc(F)cc1,inactive: 2.98%,–
